Experimental data as given in patent publication US11883383B2, “Pharmaceutically acceptable salts of [3-(4- {2-butyl-1-[4-(4-chloro-phenoxy)-phenyl]-1H-imidazol-4-yl} -phenoxy)-propyl]-diethyl-amine” (vTv Therapeutics LLC, priority 2018, dated 2024).
Some values that stand alone complete this part of the results.

Assay: Differential scanning calorimetry (DSC) endotherms of crystalline hits
Format: physicochemical
Conditions: onset temperature
Procedure: TGA data were collected using a TA Q500 and Q550 from TA Instruments. DSC was performed using a TA Q2000 from TA Instruments. DSC was calibrated with Indium reference standard and the TGA was calibrated using nickel reference standard.
All hits were further characterized by TGA and DSC, with the stoichiometry determined by ^1H NMR or HPLC/IC. Based on the characterization data in Table 2 below, most of them were considered to be anhydrates.

SMILES | DSC Endo. (onset, ° C.) (first endotherm) | DSC Endo. (onset, ° C.) (second endotherm) | DSC Endo. (onset, ° C.) (minor endotherm)
CCCCc1nc(-c2ccc(OCCCN(CC)CC)cc2)cn1-c1ccc(Oc2ccc(Cl)cc2)cc1.O=C(O)c1cc(O)ccc1O [Gentisate Type A] | 89.9 °C | 129.2 °C | 
Br.CCCCc1nc(-c2ccc(OCCCN(CC)CC)cc2)cn1-c1ccc(Oc2ccc(Cl)cc2)cc1 [HBr salt Type B] |  | 231.5 °C | 167.5 °C
